# Measured values as given in publication PMC4336329 (PLoS ONE, 2015).
# About 14,000 (4.5%) of roughly 310,000 compounds showed an effect of 50% or more. The effect is printed as a negative number. This is one part of the list.
# Molecular target: human ether-à-go-go-related gene (hERG) potassium channel (human, UniProt Q12809)
# Assay: primary screen, population patch clamp on CHO cells stably expressing hERG
# 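Further: peak tail current of the secondary pulse compared with the same well before compound.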
# Sequence of human ether-à-go-go-related gene (hERG) potassium channel (Q12809 whole entry, looked up): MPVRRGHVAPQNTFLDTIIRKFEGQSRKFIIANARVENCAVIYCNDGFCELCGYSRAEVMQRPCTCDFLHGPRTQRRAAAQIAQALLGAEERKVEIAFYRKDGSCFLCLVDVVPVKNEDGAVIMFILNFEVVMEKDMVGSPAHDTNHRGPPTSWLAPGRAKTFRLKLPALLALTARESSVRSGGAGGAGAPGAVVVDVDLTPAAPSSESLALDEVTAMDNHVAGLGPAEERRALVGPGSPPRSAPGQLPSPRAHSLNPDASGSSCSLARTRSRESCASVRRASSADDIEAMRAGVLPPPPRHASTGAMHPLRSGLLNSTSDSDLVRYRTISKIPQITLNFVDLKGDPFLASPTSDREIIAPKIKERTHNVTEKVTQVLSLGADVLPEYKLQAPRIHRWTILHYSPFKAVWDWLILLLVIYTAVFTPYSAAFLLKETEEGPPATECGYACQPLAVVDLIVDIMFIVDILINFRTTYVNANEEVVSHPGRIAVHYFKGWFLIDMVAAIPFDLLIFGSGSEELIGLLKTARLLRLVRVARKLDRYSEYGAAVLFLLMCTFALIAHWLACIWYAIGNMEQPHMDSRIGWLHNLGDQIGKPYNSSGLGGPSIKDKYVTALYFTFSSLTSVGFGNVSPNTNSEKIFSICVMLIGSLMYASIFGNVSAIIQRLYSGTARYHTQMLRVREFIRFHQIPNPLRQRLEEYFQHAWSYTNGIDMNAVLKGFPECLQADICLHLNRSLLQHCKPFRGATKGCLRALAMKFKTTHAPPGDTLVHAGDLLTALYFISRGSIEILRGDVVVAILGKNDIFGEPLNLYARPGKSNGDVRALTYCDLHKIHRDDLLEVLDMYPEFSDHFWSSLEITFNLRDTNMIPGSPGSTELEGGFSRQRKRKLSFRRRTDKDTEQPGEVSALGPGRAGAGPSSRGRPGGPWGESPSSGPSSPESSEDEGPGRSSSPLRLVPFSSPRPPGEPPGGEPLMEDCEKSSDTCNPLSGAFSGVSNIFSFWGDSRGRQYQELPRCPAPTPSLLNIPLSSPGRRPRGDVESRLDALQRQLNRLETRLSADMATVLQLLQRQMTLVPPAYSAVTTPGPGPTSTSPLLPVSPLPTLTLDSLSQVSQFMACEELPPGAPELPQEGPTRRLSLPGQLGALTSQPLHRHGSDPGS
row,Structure (SMILES),"hERG current change (%, negative = inhibition) at 10uM [%]"
1,CCCCCCCNC(=O)C1(CC2CC(c3ccc(Cl)cc3)=NO2)CCN(C(=O)C2CCCC2)CC1 (stereo not drawn),-55.8
2,O=C(Cn1c(=O)oc2cc(S(=O)(=O)N3CCc4ccccc43)ccc21)NC1CCCC1,-1.71
3,CNC(=O)CSc1nnc(C(C)C)n1C,2.47
4,O=C(Cn1c(C(F)(F)F)nc2ccccc21)c1ccccc1,0.318
5,CC(O)(c1ccccc1)C(c1ccccc1)C1CCCCN1 (stereo not drawn),-2.14
6,Cc1ccc(O)c(Nc2nc(-c3ccccc3)nc3ccccc23)c1,14.9
7,O=C(c1ccccc1)C(Cn1cncn1)C(Sc1ccccc1)c1ccccc1 (stereo not drawn),9.47
8,O=C(NCCC(=O)N1CCOCCOCCOCCOCC1)OCc1ccccc1,2.54
9,O=C(Nc1nc(=O)c2ccccc2s1)c1ccc(Cl)cc1,-0.334
10,Cn1cccc1C(=O)NNC(=O)c1ccccc1Br,-8.49
11,Cc1ccc(Cn2nc(C)c(NC(=O)CCCn3nc([N+](=O)[O-])c(Cl)c3C)c2C)cc1,-50.7
12,CC1=C(C(=O)N2CCCC(N3CCN(c4ccccc4C)CC3)C2)OCCO1 (stereo not drawn),7.81
13,CCN(CC(=O)Nc1ccccc1C(F)(F)F)C(=O)c1ccc2[nH]c3c(c2c1)CC(C)CC3 (stereo not drawn),6.89
14,CCc1nc(SCc2ccccc2C)n[nH]1,26.9
15,COc1ccc(C(C(=O)NC2CCCCC2)N(C(=O)CCl)c2cccc(Cl)c2)cc1 (stereo not drawn),13.5
16,CCOC(=O)Cc1csc(NC(=S)NC(=O)c2cc(OC)c(OC)c(OC)c2)n1,2.14
17,O=C(COC(=O)C1CC(=O)N(C2CCCCC2)C1)c1ccc(F)cc1 (stereo not drawn),-31
18,O=C(CN1C(=O)c2ccccc2C1=O)N1CCN(c2nnc(-c3ccccc3)c3ccccc23)CC1,5.5
19,N#Cc1ccccc1OCC(=O)OCC(=O)Nc1ccc2c(c1)OCO2,2.79

row,Structure (SMILES),"hERG current change (%, negative = inhibition) at 10uM [%]"
1,Cc1ccc(CN=c2c([N+](=O)[O-])nn(-c3cccc(C)c3)n2O)cc1,-32.7
2,CCN1CCCC1CNC(=O)CCc1nnc(CCC2CCCCC2)o1 (stereo not drawn),-16
3,Fc1ccc(CSc2nnc(-c3cccnc3)o2)cc1,5.24
4,COc1cccc(NC(=O)c2ncn[nH]2)c1,3.76
5,COc1nc(C)nc(NC(=O)NS(=O)(=O)c2ccc(C)cc2)n1,0.939
6,Nc1ccc(C(=O)OCc2nc3ccccc3s2)cc1,-16.5
7,Cc1ccc(NC(=O)NNC(=O)C2CCN(Cc3ccc(F)cc3Cl)CC2)cc1,7.27
8,CCC(C)NC(=O)CSc1nc2c(sc(=S)n2Cc2ccco2)c(=O)n1-c1ccccc1 (stereo not drawn),-9.99
9,COc1ccc(C2C(C)C3(O)CC(C#N)(C(=O)N3)C2(C#N)C#N)cc1 (stereo not drawn),10
10,CN(CC1CCOCC1)C(=O)CC1C(=O)NCCN1Cc1ccc(-c2ccccc2)cc1 (stereo not drawn),-8.41
11,CC(C)Cn1c(=O)c2ccccc2n2c(SCC(=O)N3c4ccccc4CC3C)nnc12 (stereo not drawn),-7.91
12,CCOC(=O)c1c(S(=O)(=O)NCC(=O)NCc2ccc(C)cc2)c(C)n(C)c1C,14.2
13,COc1ccc(NC(=O)C2CC(=O)N(CCc3ccc(F)cc3)C2)c(OC)c1 (stereo not drawn),-18.7
14,CCCOc1ccc(C(CC(=O)O)NC(=O)c2ccc3c(c2)OCO3)cc1 (stereo not drawn),10.6
15,Nc1ccc(C(=O)NCc2ccccc2)cc1,7.89
16,CCOCC(=O)Nc1ccc(S(=O)(=O)Nc2nccs2)cc1,2.41
17,O=C(CSCc1cccs1)N1CCCC1,11
18,Cc1cc(C)n(CCCO)c(=O)c1C#N,5.48
19,Cc1cc(-n2c(SCc3ccccc3F)nc3n[nH]c(C)c3c2=N)ccc1Cl,15.8

row,Structure (SMILES),"hERG current change (%, negative = inhibition) at 10uM [%]"
1,CC(NC(=O)c1cn(C)c2ccc(S(=O)(=O)N3CCCC3)cc2c1=O)c1ccccc1 (stereo not drawn),10.6
2,CC(NC(=O)c1ccc(C#N)cc1)C1CC2CCC1C2 (stereo not drawn),-58.8
3,CCCCCCCCCCCNC(=O)c1ccoc1C,-7.37
4,COc1ccc(S(=O)(=O)NCC2CCC(C(=O)NCC(OC)OC)CC2)cc1 (stereo not drawn),20.7
5,C=CCOc1c(Cl)cc(CNc2ccc(C)c(Cl)c2)cc1OC,9.93
6,COc1ccc(OC)c(/C=C/C(=O)c2ccc3c(c2)OCO3)c1,7.67
7,O=c1c2ccccc2c(-c2ccccc2)nn1Cc1ccccc1,7.29
8,COc1ccccc1C(C)NC(=O)c1ccccc1SCC(=O)N1CCCC1 (stereo not drawn),-2.12
9,Cc1csc(N2CCN(c3cc4nc(-c5ccncc5)[nH]c4cc3Cl)CC2)n1,9.18
10,C/C(=N\OC(=O)c1ccccc1F)c1nccs1,-6.6
11,COc1cc(C(=O)N/N=C/c2ccsc2C)cc(OC)c1OC,-9.66
12,C=CCNC(=O)c1c(Cl)cccc1Cl,12.8
13,Cc1ccc(-n2nc3c(N4CCC(C(=O)NCCc5cccs5)CC4)nnc(C)c3c2C)cc1,0.41
14,c1ccc(SCCOCCN2CCc3ccccc3C2)cc1,-75.3
15,O=C(O)CCC(=O)Nc1nc2nc(-c3ccccc3)cc(-c3ccccc3)n2n1,-15.7
16,O=C(c1ccc2c(c1)OCO2)N1CCN(c2ncccn2)CC1,21.5
17,N=c1c(C(=O)NC2CCCC2)cc2c(=O)n3ccccc3nc2n1CCCN1CCOCC1,-78.2
18,Cc1cccc(-c2nc(CN3CCN(C(=O)C4CCCO4)CC3)cs2)c1 (stereo not drawn),-1.71
19,CCN(C(=O)c1cc(S(=O)(=O)N2CCc3ccccc32)cn1C)c1ccccc1,-23.6
